Results on 101 compounds are retold here after PMC6919601, “Identification of Plasmodium dipeptidyl aminopeptidase allosteric inhibitors by high throughput screening” (PLoS ONE, 2019).

“And” between values parts separate entries of the source, which are not always exact repeats. Equal entries are not always repeated. In all, about 110,000 compounds went through this assay and about 230 (0.21%) showed an effect of 50% or more. This is one part of the list.
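Note: 30 min substrate incubation versus DMSO and 10 µM JCP410 controls.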

DPAP1, sequence (Q8IIJ9 whole entry, looked up): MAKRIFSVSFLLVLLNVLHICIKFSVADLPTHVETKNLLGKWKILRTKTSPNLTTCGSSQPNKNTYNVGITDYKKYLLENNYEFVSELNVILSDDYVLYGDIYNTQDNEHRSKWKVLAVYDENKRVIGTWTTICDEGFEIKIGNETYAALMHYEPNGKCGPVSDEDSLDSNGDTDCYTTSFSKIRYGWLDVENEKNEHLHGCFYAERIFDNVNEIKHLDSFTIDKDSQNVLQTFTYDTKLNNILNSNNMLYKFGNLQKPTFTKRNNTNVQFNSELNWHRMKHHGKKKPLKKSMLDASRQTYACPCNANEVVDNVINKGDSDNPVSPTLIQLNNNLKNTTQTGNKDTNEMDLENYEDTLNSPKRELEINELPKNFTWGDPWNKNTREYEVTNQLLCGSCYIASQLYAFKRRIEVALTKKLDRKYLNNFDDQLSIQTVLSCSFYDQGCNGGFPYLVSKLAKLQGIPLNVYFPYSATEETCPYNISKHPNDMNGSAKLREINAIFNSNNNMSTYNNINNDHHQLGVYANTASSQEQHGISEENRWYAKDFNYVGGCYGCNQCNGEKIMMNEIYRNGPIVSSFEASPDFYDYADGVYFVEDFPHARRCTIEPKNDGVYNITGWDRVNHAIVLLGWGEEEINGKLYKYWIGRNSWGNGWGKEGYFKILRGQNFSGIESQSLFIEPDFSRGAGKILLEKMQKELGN

The test addresses DPAP1 (Plasmodium falciparum, UniProt Q8IIJ9). In words: primary screen, percent inhibition; read by cleavage of a fluorogenic dipeptide substrate; higher = more effect of the substance. Set-up: species or system P. falciparum D10 trophozoite lysates; single well.
`O=C(Cc1ccc(Cl)cc1)Nc1ccncc1`: the “% Inhibition @ 10 uM” value was -2.74%.
Then `CCn1cc(CCC(=O)NC(C)c2ccccc2)c2ccccc21` (centres unmarked), with -4.34%; and `Nc1c(-c2nc(-c3ccccc3)no2)nnn1-c1cccc(F)c1`, with -1.01%; and `Cc1cccc(-c2nc3n(n2)C(c2ccccc2Cl)C2=C(O)CC(C)(C)CC2=N3)c1` (centres unmarked), with 0.275%.
Then `COc1ccc(-c2noc(-c3nnn(-c4cccc(C)c4)c3N)n2)cc1`, with 3.73%; and `CC(C)C[C@H](NC(=O)c1cc(-c2ccncc2)cc(-c2ccncc2)c1)C(=O)NCC#N`, with -8.26%; and `COc1ccc(S(=O)(=O)NC(CC(=O)O)C(C)C)cc1` (centres unmarked), with 1.21%.
For `Cc1c(C)c(C)c(C(=O)Nc2ccc(Cl)c(Cl)c2)c(C)c1C`, the “% Inhibition @ 10 uM” value was -1.54%.
For `Cn1c2ccccc2c2[nH]c3ccccc3c21`, the “% Inhibition @ 10 uM” value was determined as 4.42%.
Then `Cc1cccc(C(=O)Nc2nccc(C)n2)c1`, with 0.163%.
Take `COc1ccc(Br)cc1CN1CCN(C)CC1`: the “% Inhibition @ 10 uM” value is reported as -0.192%.
As to `O=S(=O)(Cc1ccccc1)c1nc2ccccc2n1Cc1ccccn1`, the “% Inhibition @ 10 uM” value is reported as 2.72%.
For `Cc1cc2ccccc2n1CCNC(=O)c1ccc(F)c(F)c1` the value was 1.39%; for `CC(C)CC(C(=O)NCC#N)c1cccc(-c2ccc(S(=O)(=O)NCCO)cc2)c1` (centres unmarked), -4.72%.
Regarding `Cc1cc(C)c2c(CC(=O)Nc3ccccc3C)coc2c1`, the “% Inhibition @ 10 uM” value is recorded as -3.77%.
For `O=C(Nc1ccccn1)c1ccc(-c2ccc(Cl)cc2)o1`, the “% Inhibition @ 10 uM” value stood at 4.83%.
Regarding `CC(CN1CCC(C(N)=O)CC1)c1ccccc1` (centres unmarked), the “% Inhibition @ 10 uM” value stood at 1.62%.
Then `Cc1ccc2c(CN(C)CCC#N)cc(=O)oc2c1`, with -3.49%.
As to `CCOc1ccc(CN2C(=O)CS/C2=N\N=C\c2ccc(OC)c(OC)c2)cc1`, the “% Inhibition @ 10 uM” value came out at 3.95%.
Then `Cc1cc(NC(=O)CN(C)C2CCCCC2)nc2c1c(=O)oc1ccccc12`, with -4.46%; and `COCc1cc(C2SCC(=O)Nc3c2c(O)nn3C2CCCCCC2)ccc1OC` (centres unmarked), with -4.26%; and `CCC1(C)COC2(OC1)C(=O)N(CN1CCOCC1)c1ccccc12` (centres unmarked), with 3.7%.
For `Cc1nc2nc(N)nc(OCc3ccccc3)c2nc1C` the value was 0.709%; for `CC(=O)N1C(=O)C2(C(C#N)=C(N)Oc3[nH]nc(-c4ccncc4)c32)c2ccccc21` (centres unmarked), 3.92%.
For `O=C(NC12CC3CC(CC(C3)C1)C2)C1CC(=O)N(c2ccccc2)C1` (centres unmarked) the value was 7.05%; for `COc1cc(C)c(S(=O)(=O)NCCc2c(C)[nH]c3c(C)cccc23)cc1C`, -0.703%.
As to `Cn1cnc2c(=O)oc3ccc(S(=O)(=O)N4CC5CC(C4)c4cccc(=O)n4C5)cc3c21` (centres unmarked), the “% Inhibition @ 10 uM” value is recorded as -5.54%.
Then `CCCCN(C)C(=O)/C(=C/c1cn(CC)c2ccccc12)NC(=O)c1ccccc1F`, with 1.64%; and `Nc1c(-c2nc(-c3ccncc3)no2)nnn1-c1cccc(C(F)(F)F)c1`, with 2.19%; and `CC(=O)NC1=NC(=O)/C(=C/c2ccc(-c3ccc(C)c(Cl)c3)o2)S1`, with 21.6%.
In the case of `CCc1ccc(C(=O)N2CCC(c3nc(O)c4nnn(Cc5ccc(C)cc5)c4n3)CC2)cc1`, the “% Inhibition @ 10 uM” value came to 0.401%.
For `COCCNC(=O)Cn1nc(Cc2ccncc2)c2ccccc2c1=O` the value was -4.69%.
For `CCCC(=O)c1c(Nc2cccc3ccccc23)cc(C)oc1=O`, the “% Inhibition @ 10 uM” value is recorded as 4.04%.
Consider `COc1cc(CN2CCCCCCC2)cc(OC)c1O`, for which the “% Inhibition @ 10 uM” value was -0.197%.
With `Cc1cc(NC(=O)CCn2cccn2)c2ccccc2n1`, the “% Inhibition @ 10 uM” value was -3.41%.
For `CC(C)NC(=O)Nc1cn(C)c(=O)c2ccccc12` the value was 5.38%; for `CCn1c(C)c(-c2ccccc2)c2cc([N+](=O)[O-])ccc21`, -0.294%; for `Nc1n[nH]c(-c2ccncc2)n1`, 4.61%.
Then `C=C1c2ccccc2NC(=O)N1c1cccc(Cl)c1`, with -7.22%; and `COc1ccccc1CNC(=O)c1cc(-c2cccs2)nc2ccccc12`, with -5.57%; and `CCc1cc2c(cc3c(O)nncn32)s1`, with -5.38%.
Then `Cc1ccc(OC(C)C(=O)Nc2cc(C)ccn2)cc1` (centres unmarked), with 2.03%; and `COC(=O)c1ccc(-c2ccco2)n1CC(=O)N1CCCC1`, with 1.22%.
On to `CCC(C)(O)C#CCN1CCN(C)CC1` (centres unmarked), for which the “% Inhibition @ 10 uM” value is on record as -7.02%.
With `CC(=O)c1cc(-c2ccc(F)cc2)n(CC(=O)NCCc2ccc(C)cc2)c1C`, the “% Inhibition @ 10 uM” value amounted to 3.07%.
In the case of `Cc1cc(C)nc(SCC(=O)NCC(C)NC(=O)CSc2nc(C)cc(C)n2)n1` (centres unmarked), the “% Inhibition @ 10 uM” value is -4.24%.
With `COc1ccc(OC)c(/C=C2/SC(=O)N(CC(=O)N3CCOCC3)C2=O)c1`, the “% Inhibition @ 10 uM” value came to 2.33%.
For `CCOC(=O)c1conc1-c1cc(OC)c(OC)c(OC)c1` the value was -3.63%; for `O=C(c1cccc(F)c1)N1CCN(Cc2ccccc2F)CC1`, -4.01%; for `CCOC(=O)c1c(NC(=O)c2nc3n(n2)C(C(F)F)CC(C)N3)sc2c1CCC(C)C2` (centres unmarked), 4.93%.
For the compound `Cc1ccc(OCC(=O)Nc2cccnc2Cl)c(C)c1`, the “% Inhibition @ 10 uM” value stood at 2.82%.
For `Cc1noc(C)c1CSc1nc2nncc-2c(O)n1-c1ccccc1` the value was -3.85%; for `COc1ccc(N(C(C)C(=O)Nc2cccnc2)S(C)(=O)=O)cc1` (centres unmarked), -7.56% and -0.661%.
For `CN1CCN(C2CCC(C(C)(C)C)CC2)CC1` (centres unmarked) the value was -1.21%; for `NC(=O)c1ccccc1NC(=O)c1ccc(-c2ccccc2)cc1`, 1.13%.
On to `CC/N=C1/SC(CC(=O)Nc2ccc(C)cc2Br)C(=O)N1CC` (centres unmarked), for which the “% Inhibition @ 10 uM” value is -2.34%.
For `CCn1c2ccccc2c2cc(CNCCc3cccc(F)c3)ccc21` the value was -9.04%.
`CN(C(=O)CSc1nc(O)c2c(n1)CCC2)C1CCCCC1`: the “% Inhibition @ 10 uM” value was 0.44%.
In the case of `CCCC(=O)Nc1ccc(C(=O)Nc2ccc(Br)cc2C)cc1`, the “% Inhibition @ 10 uM” value amounted to 1.17%.
For `CCOc1ccccc1CN1C(=O)c2ccccc2C1C(=O)NCC1CCCO1` (centres unmarked) the value was -5.2%.
On to `c1ccc(Cc2nc3c4cnn(Cc5ccccc5)c4ncn3n2)cc1`, for which the “% Inhibition @ 10 uM” value is on record as -4.64%.
Then `COCCCNC(=O)c1ccc2c(c1)ncn2-c1cc(OC)ccc1OC`, with 2.8%.
Then `COc1ccc(-c2cc(C3CC3)nc(SC)c2C#N)cc1`, with -3.77%; and `COc1cccc(Cn2c(-c3nonc3N)nc3ccccc32)c1`, with -5.38%; and `N#CCNC(=O)[C@H](CSCc1ccccn1)NC(=O)c1ccccc1`, with 4.33%.
Turning to `CC(C(=O)NC1CCN(Cc2ccccc2)CC1)n1sc2ccccc2c1=O` (centres unmarked), the “% Inhibition @ 10 uM” value worked out at 1%.
For `COc1ccc(NC(=O)c2ccc(C)c(C)c2)cc1` the value was -6.66%; for `COc1ccc(N2CCN(C(=O)CN3C(=O)C4CCCCC4C3=O)CC2)cc1` (centres unmarked), -1.17%; for `COc1cc(C(=O)Nc2ccc(S(=O)(=O)N3CCCCCC3)cc2)cc(OC)c1OC`, 0.727%.
Then `N#CC1=C(N)N(c2ccccc2)C2=C(C(=O)CCC2)C1c1ccccc1` (centres unmarked), with 2.38%; and `CC1(C)CC2(CC(C)(C)N1)OC(=O)N(CCOC13CC4CC(CC(C4)C1)C3)C2(C)O` (centres unmarked), with -5.63%; and `O=C(CN1Cc2ccccc2C1=O)NCCCN1CCCC1`, with -7.03%.
For `Cc1cc(O)c(NC(=O)COc2ccc(Cl)cc2)cc1C` the value was -2.09%.
Turning to `O=C(COc1ccccc1C(=O)NCC1CCCO1)NC12CC3CC(CC(C3)C1)C2` (centres unmarked), the “% Inhibition @ 10 uM” value came out at 2.99%.
Regarding `COc1cccc(C2C3=C(CC(C)(C)CC3=O)OC3=C2C(=O)CC(C)(C)C3)c1`, the “% Inhibition @ 10 uM” value was determined as 1.63%.
For `CCC(=O)c1ccc(OCC(O)CN2CCN(c3ccccc3)CC2)cc1` (centres unmarked) the value was 14.8%; for `Cc1nc(O)c2c(n1)OC(N)=C(C#N)C2c1cccc(Cl)c1` (centres unmarked), -5.9%; for `COc1ccc(C(C)NC(=O)COc2ccccc2Cl)cc1` (centres unmarked), -1.36%.
For `NS(=O)(=O)c1cccc(NS(=O)(=O)c2ccc(O)c([N+](=O)[O-])c2)c1` the value was 1.44%; for `COc1cccc(/C=C2N=C(/C=C/c3ccc(Cl)cc3)OC/2=O)c1`, -1.65%.
For `CC(=O)Nc1ccc(NC(=O)c2sc3nc4c(cc3c2N)CCCCCC4)cc1` the value was -8.02%; for `C=CCSc1nc(-c2ccc(OC)cc2)c(C#N)c(=O)n1CC=C`, 0.777%; for `O=C(NCc1ccco1)c1cc(-c2ccc(O)cc2)on1`, 2.01%.
In the case of `O=S(=O)(c1cccc(Cl)c1Cl)N1CCCCC1`, the “% Inhibition @ 10 uM” value is -2.51%.
Then `CC1=NN(C(=O)c2cccc(Br)c2)C(O)(c2ccncc2)C1` (centres unmarked), with 4.13%; and `CC1CN(C2=NC(=O)/C(=C/c3c[nH]nc3-c3ccccc3)S2)CC(C)O1` (centres unmarked), with 2.67%.
For `O=[N+]([O-])c1ccc(Oc2ccc(S(=O)(=O)Nc3ccc(Br)cc3)cc2)cc1` the value was -5.41%; for `O=C1CC(c2ccc(Cl)cc2)CC(=O)C1=CNCc1ccc(Cl)c(Cl)c1` (centres unmarked), 0.503%.
For `CC(C)NS(=O)(=O)c1ccc(OCC(=O)NCc2ccccn2)cc1` the value was -12.5%; for `O=C(O)c1nccnc1C(=O)Nc1ccccc1`, -0.415%.
Turning to `O=S(=O)(c1ccccc1)c1nnn2c1nc(NCc1ccco1)c1sccc12`, the “% Inhibition @ 10 uM” value is reported as 3.28%.
As to `Cc1ccnc(NC(=O)c2noc3c2COc2ccc(C)cc2-3)c1`, the “% Inhibition @ 10 uM” value is listed as -8.17%.
As to `CC1CCc2nc(NC(=O)c3ccc(S(=O)(=O)N4CCCCC4)cc3)sc2C1` (centres unmarked), the “% Inhibition @ 10 uM” value is on record as 16.9%.
For `COc1cccc(NC2=NS(=O)(=O)c3ccccc32)c1` the value was -1.05%; for `COc1cc(C(=O)Nc2ccc(Cl)c(Cl)c2)cc(OC)c1OC`, -0.268%.
On to `Cn1c(CO)c(-c2ccccc2)c2cc([N+](=O)[O-])ccc21`, for which the “% Inhibition @ 10 uM” value amounted to 1.41%.
On to `CC(=O)c1[nH]c(C)c(C(=O)NCc2cccs2)c1C`, for which the “% Inhibition @ 10 uM” value came out at 1.1%.
`CCCCn1c(=O)c(C(=O)Nc2cccc(O)c2)c(O)c2ccccc21`: the “% Inhibition @ 10 uM” value was -5.81%.
For `CC1CCCCN1S(=O)(=O)c1cccc2c(S(=O)(=O)N3CCCCC3C)cccc12` (centres unmarked) the value was 3.44%; for `Cc1cccc(C)c1NC(=O)C1(NC(=O)CN2C(=O)c3ccccc3C2=O)CCCCC1`, -8.3%.
Regarding `O=C1C2=C(c3ccccc3CC23CCCCC3)n2nnnc2C1Cc1ccccc1` (centres unmarked), the “% Inhibition @ 10 uM” value came out at 1.24%.
